This passage reports cytotoxicity call results from the antibiotic and cytotoxicity screens of Wong et al. (2023).

This is one part of the list.

The test relates to HepG2. The test can be described thus: cytotoxicity call (relative viability < 0.9). The following applies: 10 µM.
Regarding `COc1ccc2c3c([nH]c2c1)[C@@H](CO)N(C[C@]13CN(Cc2cc(on2)-c2ccccc2)C1)C(=O)Nc1ccc(cc1)F`, the cytotoxicity call was “inactive”.

As to `C[C@H]1CN([C@@H](C)CO)C(=O)c2cc(NC(=O)C3CCCCC3)ccc2O[C@@H]1CN(C)S(=O)(=O)c1cn(C)cn1`, the cytotoxicity call is “inactive”.

Regarding `C[C@H](CO)N1C[C@H](C)[C@@H](CN(C)Cc2ccc(C(F)(F)F)cc2)Oc2ccc(NC(=O)CCCCCC(=O)Nc3ccccc3N)cc2C1=O`, the cytotoxicity call is “inactive”.

Consider `C[C@@H]1CN([C@@H](C)CO)C(=O)c2cccc(NC(=O)NC3CCCCC3)c2O[C@@H]1CN(C)Cc1ccc(C(F)(F)F)cc1`, for which the cytotoxicity call is “inactive”.

In the case of `COc1ccc2c3c(n(c2c1)C)[C@H](CO)N(C[C@]13CCN(CC1)S(=O)(=O)c1ccccc1)C(=O)c1cccnc1`, the cytotoxicity call is “inactive”.

For the compound `O=c1[nH]c2ccc(F)cc2nc1O`, the cytotoxicity call is “inactive”.

Take `Cc1ccc2nc(CN)[nH]c2c1`: the cytotoxicity call is “inactive”.

As to `C[C@H](CO)N1C[C@H](C)[C@H](CN(C)Cc2ccc(-c3ccccc3)cc2)Oc2ccc(NC(=O)CCC(F)(F)F)cc2C1=O`, the cytotoxicity call was “active”.

In the case of `C[C@@H]1CN([C@H](C)CO)C(=O)Cc2cc(NS(=O)(=O)c3ccccc3)ccc2O[C@@H]1CN(C)S(=O)(=O)c1ccc(F)cc1`, the cytotoxicity call is “inactive”.

In the case of `Cc1noc(C)c1NC(=O)N(C)C[C@@H]1OCCCC[C@H](C)Oc2ccc(NS(=O)(=O)c3cccs3)cc2C(=O)N([C@@H](C)CO)C[C@@H]1C`, the cytotoxicity call was “inactive”.

Consider `C[C@@H]1CN([C@H](C)CO)C(=O)c2cc(NC(=O)c3ccncc3)ccc2O[C@@H]1CN(C)Cc1ccc(Oc2ccccc2)cc1`, for which the cytotoxicity call was “inactive”.

Regarding `CC(C)C#Cc1ccc2c(c1)O[C@H](CN(C)S(=O)(=O)c1cn(C)cn1)[C@H](C)CN([C@@H](C)CO)S2(=O)=O`, the cytotoxicity call was “inactive”.

`O=C(C[C@H]1CC[C@@H]2[C@H](COC[C@H](O)CN2C(=O)c2ccccc2)O1)NCCCN1CCOCC1`: the cytotoxicity call was “inactive”.

Turning to `COC(=O)CC1C(C)(C)C(OC(C)=O)C2CC3=C4CC(=O)OC(c5ccoc5)C4(C)CCC3C1(C)C2=O` (stereo not given), the cytotoxicity call was “inactive”.

On to `C[C@H](CO)N1C[C@H](C)[C@H](CN(C)C(=O)Nc2ccc(C(F)(F)F)cc2)Oc2c(NC(=O)Nc3ccc(C(F)(F)F)cc3)cccc2C1=O`, for which the cytotoxicity call is “active”.

With `C[C@H](CO)N1C[C@H](C)[C@H](CN(C)CC2CCCCC2)Oc2ccc(NC(=O)Cn3cnnn3)cc2C1=O`, the cytotoxicity call was “inactive”.

`C[C@@H]1CCCCO[C@H](CN(C)C(=O)CCC(F)(F)F)[C@H](C)CN([C@H](C)CO)C(=O)c2cc(NS(=O)(=O)c3ccc(Cl)cc3)ccc2O1`: the cytotoxicity call was “inactive”.

On to `O=C(C[C@@H]1CC[C@@H]2[C@H](COC[C@@H](O)CN2Cc2ccccc2F)O1)N[C@H]1CCN(Cc2ccccc2)C1`, for which the cytotoxicity call was “inactive”.

Take `C[C@H]1CN([C@@H](C)CO)C(=O)Cc2cc(NC(=O)CCCCCC(=O)Nc3ccccc3N)ccc2O[C@H]1CN(C)S(=O)(=O)c1cn(C)cn1`: the cytotoxicity call is “inactive”.

As to `COc1ccc(NC(=O)Nc2ccc3c(c2)C(=O)N([C@H](C)CO)C[C@H](C)[C@@H](CN(C)S(=O)(=O)c2ccc(F)cc2)OCCCC[C@H](C)O3)cc1`, the cytotoxicity call was “inactive”.

In the case of `C=CC[N+]1(C2CC3C4CCC5CC(O)C(N6CCOCC6)CC5(C)C4CCC3(C)C2OC(C)=O)CCCC1.[Br-]` (stereo not given), the cytotoxicity call was “inactive”.

For `C[C@H]1CN([C@@H](C)CO)C(=O)c2cc(NC(=O)Nc3ccc(F)cc3)ccc2O[C@H]1CN(C)CC1CCCCC1`, the cytotoxicity call was “inactive”.

`Cc1noc(C)c1S(=O)(=O)Nc1cccc2c1O[C@H](CN(C)Cc1ccccc1)[C@H](C)CN([C@H](C)CO)C2=O`: the cytotoxicity call was “inactive”.

In the case of `C[C@H](CO)N1C[C@H](C)[C@@H](CN(C)Cc2ccc(C(F)(F)F)cc2)Oc2ccc(NC(=O)Nc3cccc4ccccc34)cc2CC1=O`, the cytotoxicity call is “inactive”.

In the case of `Cc1noc(C)c1NC(=O)Nc1ccc2c(c1)C(=O)N([C@H](C)CO)C[C@@H](C)[C@@H](CN(C)C(=O)C1CCCCC1)OCCCC[C@@H](C)O2`, the cytotoxicity call is “inactive”.

Regarding `C[C@H](CO)N1C[C@H](C)[C@@H](CN(C)S(=O)(=O)c2ccccc2)Oc2cc(C#Cc3ccncc3)ccc2S1(=O)=O`, the cytotoxicity call was “active”.

For the compound `CCN(CC)CCNc1ccc(CO)c2sc3ccccc3c(=O)c12`, the cytotoxicity call is “active”.

On to `CC(C)(C[C@H]1CN(S(=O)(=O)c2cccc(C(F)(F)F)c2)c2cc(-c3cc(F)cc(OC(F)F)c3)ccc2O1)C(=O)O`, for which the cytotoxicity call is “inactive”.

On to `COc1ccc(NC(=O)Nc2ccc3c(c2)CC(=O)N([C@@H](C)CO)C[C@H](C)[C@@H](CN(C)Cc2ccc(C(=O)Nc4ccccc4N)cc2)O3)cc1`, for which the cytotoxicity call is “inactive”.

For the compound `CC(C)[Si](C#C[Si](C(C)C)(C(C)C)C(C)C)(O[C@H](C)c1cn([C@H](CO)Cc2ccccc2)nn1)C(C)C`, the cytotoxicity call is “inactive”.

Consider `COc1ccc(C#Cc2cnc3c(c2)C(=O)N([C@H](C)CO)C[C@H](C)[C@H](CN(C)C(=O)Nc2cccc4ccccc24)O3)cc1OC`, for which the cytotoxicity call was “inactive”.

As to `CCCN(C)C[C@H]1OCCCC[C@H](C)Oc2ccc(NC(=O)Nc3ccc4c(c3)OCO4)cc2C(=O)N([C@@H](C)CO)C[C@@H]1C`, the cytotoxicity call is “inactive”.

As for `COc1ccc(S(=O)(=O)Nc2ccc3c(c2)C(=O)N([C@@H](C)CO)C[C@@H](C)[C@@H](CN(C)S(=O)(=O)c2cn(C)cn2)O3)cc1`, the cytotoxicity call was “inactive”.

In the case of `C[C@@H](CO)N1C(=O)[C@@H]2[C@H]3C(=O)OCC=C[C@H]3O[C@]23C=CCN(C(C)(C)C)C(=O)[C@@H]13`, the cytotoxicity call was “inactive”.

In the case of `C[C@H]1CN([C@@H](C)CO)C(=O)c2cccc(NC(=O)c3ccc(-c4nccs4)cc3)c2O[C@H]1CN(C)C(=O)Nc1cccc2ccccc12`, the cytotoxicity call is “inactive”.

For `O=C(C[C@H]1CC[C@H]2[C@@H](COC[C@@H](O)CN2C(=O)Nc2cccc(Cl)c2)O1)NCCCN1CCOCC1`, the cytotoxicity call was “inactive”.

As for `COc1ccc(C2CC(=O)c3c(O)cc(OC4OC(COC5OC(C)C(O)C(O)C5O)C(O)C(O)C4O)cc3O2)cc1O` (stereo not given), the cytotoxicity call was “inactive”.

In the case of `C[C@H]1CN([C@@H](C)CO)C(=O)c2cc(C#CCc3ccccc3)cnc2O[C@H]1CN(C)CC1CCOCC1`, the cytotoxicity call was “inactive”.

Consider `C[C@H]1CN([C@@H](C)CO)C(=O)Cc2cc(NC(=O)C3CCCCC3)ccc2O[C@@H]1CN(C)Cc1ccc(C(F)(F)F)cc1`, for which the cytotoxicity call was “active”.

As to `CCS(=O)(=O)Nc1ccc2c(c1)C(=O)N(C)C[C@H](OC)[C@@H](C)CN(CCC(F)(F)F)[C@H](C)CO2`, the cytotoxicity call is “inactive”.
